Some of the results follow. The list includes weakly bound sequences.

This assay concerns the target MaxL homodimer (UniProt P61244). The assay is described as follows: universal protein-binding microarray (PBM). The note with it: PBS-based mixture, 10 nM His-tagged protein dimer, 2% milk, 200 ng/uL BSA, 50 ng/uL salmon testes DNA, 0.02% TX-100; detection with Alexa 488 anti-His …; high values mean tight binding; most listed sequences are background and not binding sites; double strand, one strand shown.
UniProt P61244, sequence (P61244 whole entry): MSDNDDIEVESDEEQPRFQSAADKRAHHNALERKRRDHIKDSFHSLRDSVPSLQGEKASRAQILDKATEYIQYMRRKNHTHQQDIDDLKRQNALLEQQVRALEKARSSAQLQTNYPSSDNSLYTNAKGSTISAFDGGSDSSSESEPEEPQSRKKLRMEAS
Take GCGATCCA: the binding signal (normalized occupancy) was found to be 0.076.

In the case of CCGTGTTA, the binding signal (normalized occupancy) amounted to 0.0848.

In the case of CTTTCCAC, the binding signal (normalized occupancy) is 0.083.

Consider CCAAACTA, for which the binding signal (normalized occupancy) is 0.0821.

For the sequence CTCGTCAC, the binding signal (normalized occupancy) was determined as 0.0721.

As for AATACGTA, the binding signal (normalized occupancy) was 0.0823.

Consider ATAAGAAA, for which the binding signal (normalized occupancy) came out at 0.0821.

In the case of CATCTCGC, the binding signal (normalized occupancy) was 0.0758.

As to CTTAATGA, the binding signal (normalized occupancy) was found to be 0.0714.

In the case of TAATTGTA, the binding signal (normalized occupancy) amounted to 0.0773.

With ACACCCGA, the binding signal (normalized occupancy) was 0.0749.

As to CTAATGGC, the binding signal (normalized occupancy) turned out to be 0.0693.

For CCAGCGAG, the binding signal (normalized occupancy) was determined as 0.0726.

As to TGTATACA, the binding signal (normalized occupancy) came out at 0.083.

For ATACTGCC, the binding signal (normalized occupancy) amounted to 0.0738.

With AATGATTG, the binding signal (normalized occupancy) was found to be 0.0785.

For the sequence AACTTCGC, the binding signal (normalized occupancy) is 0.0693.

Consider ATCACGCA, for which the binding signal (normalized occupancy) worked out at 0.0877.

With AACGCCTA, the binding signal (normalized occupancy) was found to be 0.08.

Turning to GAGAACAC, the binding signal (normalized occupancy) was 0.0734.

On to CCTCGCGA, for which the binding signal (normalized occupancy) is 0.0793.

Regarding GCTGATCC, the binding signal (normalized occupancy) turned out to be 0.0734.

On to ATGGACTG, for which the binding signal (normalized occupancy) came out at 0.0766.

Take AGAGACAT: the binding signal (normalized occupancy) came out at 0.0797.

For CCGACAAC, the binding signal (normalized occupancy) is 0.0761.

With CAACCCTG, the binding signal (normalized occupancy) was 0.0771.

As to CATTGACG, the binding signal (normalized occupancy) came to 0.0792.

As to TCGAGAGA, the binding signal (normalized occupancy) was 0.074.

Consider GGACTCAA, for which the binding signal (normalized occupancy) is 0.0719.

As for CTGGTACC, the binding signal (normalized occupancy) was 0.0716.

In the case of ATCCCTCC, the binding signal (normalized occupancy) was 0.0778.

Turning to AATTCGAC, the binding signal (normalized occupancy) is 0.0706.

CAGGTGAA: the binding signal (normalized occupancy) was 0.0782.

GAGAACCC: the binding signal (normalized occupancy) turned out to be 0.0767.

Regarding GCTTATCA, the binding signal (normalized occupancy) is 0.0771.

CGGTAGCA: the binding signal (normalized occupancy) amounted to 0.0827.

With AGACCTCG, the binding signal (normalized occupancy) came to 0.0755.

For CAACCGGG, the binding signal (normalized occupancy) turned out to be 0.0697.

Turning to ACTTACAT, the binding signal (normalized occupancy) is 0.0796.

As for CGTGAATA, the binding signal (normalized occupancy) turned out to be 0.0879.

In the case of AAGGTCTC, the binding signal (normalized occupancy) was 0.0712.

In the case of ACCTGTCA, the binding signal (normalized occupancy) turned out to be 0.0782.

As for AGGTCTAA, the binding signal (normalized occupancy) is 0.0744.

As to TCGCTCAA, the binding signal (normalized occupancy) was 0.0752.

Turning to AGTGGTGG, the binding signal (normalized occupancy) was 0.0755.

As to TCCTAACA, the binding signal (normalized occupancy) is 0.0761.

As for AAACGCTA, the binding signal (normalized occupancy) came out at 0.0723.

In the case of ACCAGAGG, the binding signal (normalized occupancy) was 0.0687.

For GCCCAATA, the binding signal (normalized occupancy) is 0.0754.

In the case of GTATTTTA, the binding signal (normalized occupancy) turned out to be 0.0782.

As to AATACCCG, the binding signal (normalized occupancy) is 0.0718.

In the case of CTGAAATA, the binding signal (normalized occupancy) was determined as 0.073.

Turning to AGGCAGAC, the binding signal (normalized occupancy) was found to be 0.0703.

As for CTCGGCGC, the binding signal (normalized occupancy) is 0.0731.

Turning to AACTTCTG, the binding signal (normalized occupancy) came out at 0.0688.

Consider ATCACGGC, for which the binding signal (normalized occupancy) came out at 0.0739.

As for CATCGCCC, the binding signal (normalized occupancy) stood at 0.0767.

Consider CGACGCAG, for which the binding signal (normalized occupancy) was 0.0678.

Consider AGCAAATG, for which the binding signal (normalized occupancy) worked out at 0.0779.

CGTGGTGC: the binding signal (normalized occupancy) was 0.0922.

For the sequence ATTAAGTA, the binding signal (normalized occupancy) was determined as 0.0747.

For ATTCCGTG, the binding signal (normalized occupancy) came out at 0.0788.

ATATTGAC: the binding signal (normalized occupancy) was determined as 0.0831.

For GACCCGCC, the binding signal (normalized occupancy) was 0.0786.

Regarding CGCACGCC, the binding signal (normalized occupancy) came out at 0.0878.

Turning to GAGCGTCA, the binding signal (normalized occupancy) was 0.0697.

In the case of TATTAGGA, the binding signal (normalized occupancy) worked out at 0.0748.

Consider AACCCGCT, for which the binding signal (normalized occupancy) came to 0.0757.

On to ATCCGATA, for which the binding signal (normalized occupancy) came out at 0.0795.

As for CAAGATGA, the binding signal (normalized occupancy) is 0.0749.

As for AATTGAGA, the binding signal (normalized occupancy) stood at 0.073.

Turning to AATTCAAT, the binding signal (normalized occupancy) is 0.0758.

For CCTACGGC, the binding signal (normalized occupancy) is 0.0854.

ACACCAAA: the binding signal (normalized occupancy) worked out at 0.0724.

Take ATGAATGA: the binding signal (normalized occupancy) is 0.082.

With CAACAGGA, the binding signal (normalized occupancy) was determined as 0.0715.

As to GCAGCGGA, the binding signal (normalized occupancy) stood at 0.0705.

Regarding ACCTGCGA, the binding signal (normalized occupancy) came to 0.0754.

On to GACGGGAA, for which the binding signal (normalized occupancy) was 0.0747.

As for CCTTACCA, the binding signal (normalized occupancy) was determined as 0.0772.

Turning to CCCTGTTA, the binding signal (normalized occupancy) was 0.0759.

On to ACCGCTCC, for which the binding signal (normalized occupancy) came out at 0.0657.

As for CATCTTGA, the binding signal (normalized occupancy) turned out to be 0.077.

For the sequence GTAACGTA, the binding signal (normalized occupancy) worked out at 0.077.

With CGGAACTC, the binding signal (normalized occupancy) amounted to 0.0671.

As to GGAATAAA, the binding signal (normalized occupancy) is 0.0741.

Regarding CCGATACA, the binding signal (normalized occupancy) was found to be 0.0816.

Turning to GGCAGCAC, the binding signal (normalized occupancy) is 0.0769.

CTAGGTTA: the binding signal (normalized occupancy) worked out at 0.075.

Consider ACGTAGAC, for which the binding signal (normalized occupancy) was determined as 0.0775.

GAAGCACC: the binding signal (normalized occupancy) stood at 0.0741.

For AGTTCACG, the binding signal (normalized occupancy) worked out at 0.0752.

Turning to ATCCTCGA, the binding signal (normalized occupancy) turned out to be 0.0757.

Regarding AGGGTTAC, the binding signal (normalized occupancy) was determined as 0.0723.

With CGTCGGAC, the binding signal (normalized occupancy) came out at 0.0717.

ATCTTAGG: the binding signal (normalized occupancy) came out at 0.0777.

With ACCTTCCT, the binding signal (normalized occupancy) was found to be 0.0707.

In the case of TCATTAGA, the binding signal (normalized occupancy) amounted to 0.0757.

On to CGCAGAGC, for which the binding signal (normalized occupancy) was found to be 0.069.

Take CGCAAACA: the binding signal (normalized occupancy) was 0.0718.

Consider AAGCGGCC, for which the binding signal (normalized occupancy) was found to be 0.0631.

Turning to CATTCCCG, the binding signal (normalized occupancy) was determined as 0.0783.

On to AAACCGTA, for which the binding signal (normalized occupancy) amounted to 0.0713.

In the case of ACATATCT, the binding signal (normalized occupancy) came to 0.0819.

As to GTTGACGA, the binding signal (normalized occupancy) is 0.0768.

ACAATGAT: the binding signal (normalized occupancy) was 0.0837.

CCAATAAG: the binding signal (normalized occupancy) worked out at 0.0728.

With AGAAAGCG, the binding signal (normalized occupancy) was 0.0707.

Regarding AGGCCACG, the binding signal (normalized occupancy) turned out to be 0.0868.

On to AAAAGAGG, for which the binding signal (normalized occupancy) is 0.0763.

Consider GACTGCAC, for which the binding signal (normalized occupancy) stood at 0.0697.

For CAAAAGCC, the binding signal (normalized occupancy) stood at 0.0674.

In the case of GCTCACTA, the binding signal (normalized occupancy) turned out to be 0.0758.

Consider GACAAGAA, for which the binding signal (normalized occupancy) is 0.0761.

With CATCTCGA, the binding signal (normalized occupancy) came out at 0.0817.

In the case of CGAAAGTA, the binding signal (normalized occupancy) turned out to be 0.0748.

Take AGTTCTGG: the binding signal (normalized occupancy) was found to be 0.068.

Regarding AAGTAAAC, the binding signal (normalized occupancy) came out at 0.0718.

With GTGCGTGA, the binding signal (normalized occupancy) came out at 0.0887.

CTTTGACA: the binding signal (normalized occupancy) is 0.0747.

On to ATTATCAC, for which the binding signal (normalized occupancy) came to 0.085.

Turning to GTAGGTGA, the binding signal (normalized occupancy) came to 0.0726.

On to CCGACAGA, for which the binding signal (normalized occupancy) was determined as 0.0688.

Regarding CTCCATCA, the binding signal (normalized occupancy) is 0.0804.

As for ACCTGCCC, the binding signal (normalized occupancy) worked out at 0.0751.

CGCTACAG: the binding signal (normalized occupancy) is 0.0703.

With ACGGCCAT, the binding signal (normalized occupancy) came out at 0.0797.

For ACATCGCT, the binding signal (normalized occupancy) was found to be 0.0756.

As to CCTTAAGG, the binding signal (normalized occupancy) turned out to be 0.0719.

In the case of GACATATA, the binding signal (normalized occupancy) is 0.0893.

Consider GTAGTGCA, for which the binding signal (normalized occupancy) was found to be 0.074.

For the sequence ACACTCCT, the binding signal (normalized occupancy) amounted to 0.0744.

For ATTAGGAC, the binding signal (normalized occupancy) was 0.0741.

As to AGGAATAA, the binding signal (normalized occupancy) came out at 0.0754.

As for CATCGCTA, the binding signal (normalized occupancy) amounted to 0.0757.

In the case of CGTATAGA, the binding signal (normalized occupancy) is 0.075.

Turning to GCTTTTCC, the binding signal (normalized occupancy) came to 0.0711.

Consider GGTAAACA, for which the binding signal (normalized occupancy) came out at 0.0781.

With ATGTATGG, the binding signal (normalized occupancy) is 0.085.

As for ACGAGATG, the binding signal (normalized occupancy) was found to be 0.0758.

CAAAAACG: the binding signal (normalized occupancy) is 0.0717.

As for AGTCTTGA, the binding signal (normalized occupancy) was 0.0689.

In the case of CGTGCTGA, the binding signal (normalized occupancy) came out at 0.095.

Consider CAAGTCGG, for which the binding signal (normalized occupancy) is 0.075.

With TCCCATAA, the binding signal (normalized occupancy) was 0.0766.

For the sequence AGGGCCTG, the binding signal (normalized occupancy) was determined as 0.0751.

CCTGCTCA: the binding signal (normalized occupancy) stood at 0.0788.

Regarding GTTTTGCA, the binding signal (normalized occupancy) was 0.0717.

GTCGCCAC: the binding signal (normalized occupancy) came to 0.0755.

As for CGGCCGAC, the binding signal (normalized occupancy) came out at 0.0661.

On to ACCGGACC, for which the binding signal (normalized occupancy) is 0.0681.

Take TCGACAGA: the binding signal (normalized occupancy) amounted to 0.0736.

ATTAAGGG: the binding signal (normalized occupancy) was found to be 0.074.

Regarding ACCGGGAG, the binding signal (normalized occupancy) was found to be 0.0756.

On to GCTTACAA, for which the binding signal (normalized occupancy) is 0.0718.

As to AGAGATTG, the binding signal (normalized occupancy) was found to be 0.0785.

As to CGGTGTGA, the binding signal (normalized occupancy) is 0.0813.

With AGAAGGAT, the binding signal (normalized occupancy) came to 0.0788.

Turning to CAAATCTC, the binding signal (normalized occupancy) was found to be 0.0775.

Regarding ATATTCCC, the binding signal (normalized occupancy) came out at 0.0798.

On to ATTTATTC, for which the binding signal (normalized occupancy) came to 0.0788.

As for AACGCAAT, the binding signal (normalized occupancy) was found to be 0.0716.

Regarding GTTGCAAC, the binding signal (normalized occupancy) turned out to be 0.0734.

As for CGCGCTCA, the binding signal (normalized occupancy) amounted to 0.0722.

In the case of ACAGTCAG, the binding signal (normalized occupancy) stood at 0.0747.

For the sequence ATTAGGTG, the binding signal (normalized occupancy) was 0.0774.

Take GGGTCTTA: the binding signal (normalized occupancy) came to 0.0763.

Consider AAATTAAT, for which the binding signal (normalized occupancy) is 0.0772.

With TGACAACA, the binding signal (normalized occupancy) was found to be 0.0803.

Take ACACACAG: the binding signal (normalized occupancy) is 0.0801.

In the case of CACATGTC, the binding signal (normalized occupancy) worked out at 0.159.

Take AGAACACG: the binding signal (normalized occupancy) is 0.0941.

(Values after PMC4242493.)
